# In paper PMC4336329 (PLoS ONE, 2015):
# Screen size: about 310,000 compounds; about 14,000 (4.5%) showed an effect of 50% or more. Effects have a minus sign here. This is one part of the list.
# Target: human ether-à-go-go-related gene (hERG) potassium channel (human, UniProt Q12809)
# Test: primary screen, population patch clamp on CHO cells stably expressing hERG
# 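Further: peak tail current of the secondary pulse compared with the same well before compound.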
# Chain of human ether-à-go-go-related gene (hERG) potassium channel (Q12809 whole entry, looked up): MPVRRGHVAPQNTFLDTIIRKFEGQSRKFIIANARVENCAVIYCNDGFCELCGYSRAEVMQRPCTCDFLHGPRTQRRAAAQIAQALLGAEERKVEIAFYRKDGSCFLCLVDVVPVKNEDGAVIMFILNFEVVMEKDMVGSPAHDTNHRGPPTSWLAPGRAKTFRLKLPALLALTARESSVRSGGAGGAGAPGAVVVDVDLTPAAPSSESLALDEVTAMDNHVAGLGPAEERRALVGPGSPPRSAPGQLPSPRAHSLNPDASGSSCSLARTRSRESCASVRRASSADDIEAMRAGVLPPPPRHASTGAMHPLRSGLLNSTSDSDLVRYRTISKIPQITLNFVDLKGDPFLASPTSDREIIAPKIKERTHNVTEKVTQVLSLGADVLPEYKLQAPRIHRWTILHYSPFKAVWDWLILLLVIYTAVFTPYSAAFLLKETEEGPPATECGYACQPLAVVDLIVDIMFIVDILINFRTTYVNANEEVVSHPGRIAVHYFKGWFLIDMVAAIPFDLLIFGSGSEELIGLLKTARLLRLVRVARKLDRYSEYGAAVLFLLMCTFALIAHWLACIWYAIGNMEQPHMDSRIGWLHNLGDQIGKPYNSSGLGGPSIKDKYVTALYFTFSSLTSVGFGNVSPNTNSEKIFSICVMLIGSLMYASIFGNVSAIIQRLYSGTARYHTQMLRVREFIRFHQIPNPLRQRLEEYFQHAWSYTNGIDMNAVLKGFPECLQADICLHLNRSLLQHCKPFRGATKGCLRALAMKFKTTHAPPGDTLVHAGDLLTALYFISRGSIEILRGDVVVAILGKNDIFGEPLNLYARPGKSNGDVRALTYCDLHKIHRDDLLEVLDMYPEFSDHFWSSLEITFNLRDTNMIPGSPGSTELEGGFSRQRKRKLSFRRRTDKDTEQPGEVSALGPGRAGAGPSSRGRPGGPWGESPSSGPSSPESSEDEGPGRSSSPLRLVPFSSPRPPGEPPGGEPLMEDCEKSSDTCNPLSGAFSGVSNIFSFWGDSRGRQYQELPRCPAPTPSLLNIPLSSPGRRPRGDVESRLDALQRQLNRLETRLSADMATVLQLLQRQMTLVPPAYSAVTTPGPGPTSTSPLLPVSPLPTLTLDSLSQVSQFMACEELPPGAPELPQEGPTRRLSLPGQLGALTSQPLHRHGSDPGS
row,SMILES,"hERG current change (%, negative = inhibition) at 10uM"
1,NC(=O)CC(NC(=O)c1ccccc1)c1ccc(NC2CCCC2)c([N+](=O)[O-])c1 (stereo not drawn),5.39%
2,COC(=O)CN1C(=O)COc2ccc(S(=O)(=O)N3CCCC3)cc21,9.73%
3,Cc1c(C=C2C(=O)c3ccccc3C2=O)cc(C#N)n1C,4.72%
4,COc1ccc(/C=N/NC(=O)c2c([N+](=O)[O-])c(C)nn2C)cc1,15.1%
5,CCOC(Cn1c(SCC(=O)Nc2cc(C)on2)nc2ccccc2c1=O)OCC,7.63%
6,CC(C)c1ccc(NC(=O)C2CCN(S(=O)(=O)c3ccc4c(c3)NC(=O)CO4)CC2)cc1,15.9%
7,N#C/C(=C\c1c(N2CCCCC2)nc2ccccn2c1=O)C(=O)NC1CCS(=O)(=O)C1 (stereo not drawn),-15%
8,Cc1ccccc1NC(=O)CSC1=C(C#N)C(c2ccsc2)CC(=O)N1 (stereo not drawn),-2.24%
9,COc1ccc(C)cc1NC(=O)CNC(c1ccccc1)c1ccc(C)cc1 (stereo not drawn),12.7%
10,Cc1cc(/C=N/NC(N)=O)c(C)c(CO)c1,15.8%
11,O=C(NC(=S)Nc1ccc(CN2CCCCC2)cc1)c1cc2ccccc2o1,-24.3%
12,Cn1c2c(c(=O)n(C)c1=O)CN(Cc1ccc3c(c1)OCO3)CN2,-4.04%
13,CCN(Cc1ccccc1)Cc1ccc(OCc2ccccc2)cc1.O=C(O)C(=O)O,13.7%
14,O=C(CSc1nc(O)c(C(c2ccccc2)c2ccccc2)c(=O)[nH]1)N1CCOCC1,5.82%
15,CC1Cc2ccccc2N1C(=O)CSc1ncccc1C(=O)O (stereo not drawn),19.2%
16,Cl.O=C(/C=C/c1ccccc1)N1CCN(CC(O)COc2ccccc2)CC1 (stereo not drawn),-69.7%
17,COc1ccc2cc(C(=O)C3CCCN(C(=O)c4ccnn4C)C3)ccc2c1 (stereo not drawn),-41.1%
18,CCNC(=O)C1=C(O)c2sccc2N(C)S1(=O)=O,24.6%
19,O=S1(=O)CC=C(CSc2nc3ccccc3[nH]2)C1,9.13%

row,SMILES,"hERG current change (%, negative = inhibition) at 10uM"
1,COC(=O)NCc1ccc(Cl)c(Cl)c1,5.73%
2,Cc1n[nH]c(C)c1S(=O)(=O)N(C)Cc1ccco1,2.13%
3,O=C(Cc1ccccc1[N+](=O)[O-])NCCSCc1c(F)cccc1Cl,20.6%
4,CCOCCn1c(SCC)nc2c1c(=O)[nH]c(=O)n2C,-1.3%
5,Cc1nnc(C)n1/N=C/c1cccs1,13.4%
6,CNc1cc(C(F)(F)F)nc(-c2ccccn2)n1,20.5%
7,CC(=O)c1ccc(N2CCN(S(=O)(=O)c3cn(C)cn3)CC2)cc1,19.6%
8,O=[N+]([O-])c1ccc(/C=N/Nc2nc(N3CCCC3)nc(N3CCCC3)n2)o1,1.41%
9,CCN(CC)C(=O)Oc1ccc(NC(=O)N2CCOCC2)cc1,4.02%
10,COCc1cc(C)nc2sc(C(=O)Nc3nccs3)c(N)c12,-6%
11,COc1ccc(-c2c(C)oc3c(CN4CCCCC4C)c(O)ccc3c2=O)cc1 (stereo not drawn),-16.6%
12,CC(C)S(=O)(=O)c1csc(NC(=O)Nc2ccc(Cl)cc2)c1Cl,-41.5%
13,O=C(NC(=S)N1CCCCC1)C12CC3CC(CC(C3)C1)C2,20.7%
14,CCOC(=O)N1CCC(NC(=O)CCCN2C(=O)CSc3ncccc32)CC1,9.25%
15,O=C(Nc1cccc(C(=O)O)c1)Nc1ccc2c(c1)OCO2,16.4%
16,Cc1ccc(N2C(=O)C(Cl)=C(Nc3c(C)n(C)n(-c4ccccc4)c3=O)C2=O)cc1,-17.9%
17,Clc1ccc(SCCCCN2CCNCC2)cc1.O=C(O)C(=O)O,-48.7%
18,CCOC(=O)Nc1ccc2c(c1)N(C(=O)CN1CCN(CCO)CC1)c1ccccc1CC2.Cl,-1.11%
19,O=C(/C=C/c1ccccc1)Nc1ncn[nH]1,14.5%

row,SMILES,"hERG current change (%, negative = inhibition) at 10uM"
1,O=C1N(c2ccccc2)CCN1c1ccccc1,31.4%
2,O=C(Cc1c(F)cccc1Cl)N/N=C/c1cccs1,3.71%
3,COc1ccccc1N1C(=O)S/C(=C\c2cc(C)n(C)c2C)C1=O,10.9%
4,C/C(Cl)=C\Cn1c(NCCCn2ccnc2)nc2c1c(=O)n(C)c(=O)n2C,-27.6%
5,COc1ccc(NC(=S)/N=C(\N)Nc2nc(C)c3ccccc3n2)cc1,15.6%
6,CCOC(=O)C1CCN(c2c(NCCCN3CCN(Cc4ccccc4)CC3)c(=O)c2=O)CC1,3.6%
7,CCOc1c2ccc(C(=O)NCc3ccc(C)cc3)cc2nn1CC,0.876%
8,Cc1nc(-c2ccc(S(=O)(=O)NCC3CCN(C(=O)OC(C)(C)C)CC3)s2)cs1,-3.83%
9,CCn1c(CCC(=O)O)nc2cc(S(=O)(=O)N(C)C)ccc21,29.2%
10,CCOc1ccc(S(=O)(=O)N2CCCC(C(=O)N3CCOCC3)C2)cc1 (stereo not drawn),-2.04%
11,CC(=O)Nc1ccc(C2CN(C)CC2C(=O)c2ccc(Cl)cc2)cc1 (stereo not drawn),-31.8%
12,CCOC(=O)c1sc2nc(C)cc(-c3ccccc3)c2c1N,-8.6%
13,Cc1nn(Cc2ccccc2)c(Cl)c1C(=O)Nc1ccc(OC(F)(F)F)cc1,28.4%
14,COc1ccccc1/C=N/n1cnnc1,5.92%
15,CCCN1C(=O)COc2ccc(-c3n[nH]c(=O)c4ccccc34)cc21,10.4%
16,Nc1nnc(SCC(=O)Nc2cc(S(=O)(=O)N3CCOCC3)ccc2Cl)s1,13.4%
17,COC(=O)[C@@H]1C[C@H]1[C@@H](NS(=O)(=O)c1ccccc1)c1ccccc1,2.43%
18,Cc1cccc(N2C(=O)CN=C2Nc2nc(C)cc(C)n2)c1,-14.4%
19,COc1ccc(-n2c(CNC(=O)c3cc(OC)c(OC)c(OC)c3)n[nH]c2=S)cc1,9.84%
